Source: PubChem BioAssay AID588754 (Broad Institute, 2011)
Not every entry of the source has a single result; some have several. This list holds those alone. The source may hold further records. Results that share an entry repeat one measurement in other runs, samples, wells, individuals or studies. A tag in brackets gives the origin of a value. Letters hold for one entry only.

Molecular target: Scavenger receptor class B member 1 (Mus musculus) (UniProt Q61009)
Experiment: inhibition of HDL lipid transfer via mSR-BI – ldlA[mSR-BI] CHO cells, powder samples, set 5, dose response (AID 588754)
Conditions: DiI-HDL uptake fluorescence, 3 h
Summary of the method: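 Material: LDL receptor-deficient CHO ldlA cells overexpressing murine SR-BI | Probe or stimulus: DiI-labeled HDL at 10 µg/mL final | Buffer or medium: Ham's F12 with fatty acid-free BSA and HEPES | Detection: DiI fluorescence, 550 nm excitation, 595 nm emission | Evaluation: HDL uptake fluorescence, decrease meaning inhibition | Schedule: 3 h exposure to compound plus DiI-HDL at 37 °C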

Chain of UniProt Q61009 (Q61009 whole entry, looked up): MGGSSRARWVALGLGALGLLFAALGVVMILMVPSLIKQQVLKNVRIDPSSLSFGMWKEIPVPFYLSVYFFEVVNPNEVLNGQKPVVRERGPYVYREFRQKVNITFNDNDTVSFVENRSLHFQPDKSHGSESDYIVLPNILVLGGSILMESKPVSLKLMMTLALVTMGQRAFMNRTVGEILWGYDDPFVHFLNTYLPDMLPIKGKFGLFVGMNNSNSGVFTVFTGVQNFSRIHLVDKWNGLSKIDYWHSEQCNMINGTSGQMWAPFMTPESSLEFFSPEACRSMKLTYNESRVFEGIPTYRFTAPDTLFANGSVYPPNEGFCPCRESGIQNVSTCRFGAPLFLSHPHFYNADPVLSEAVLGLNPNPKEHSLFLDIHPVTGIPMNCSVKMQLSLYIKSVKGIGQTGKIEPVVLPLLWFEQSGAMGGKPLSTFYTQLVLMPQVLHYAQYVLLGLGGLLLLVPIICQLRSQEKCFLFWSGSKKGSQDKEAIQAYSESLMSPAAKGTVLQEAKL

- AC50: 18.1 nM [sample A] and 974 nM [sample B]
Structure (SMILES): CCC(=O)N1CCc2cc(-c3csc(NC(=O)c4ccco4)n3)ccc21
